Assay results published in the supplement of paper PMC11417369.
± gives the standard deviation of the averaged measurements. The list shows a part of the results.

test system: PfAP2-EXP AP2 domain (GST-tagged); test: gcPBM binding intensity (ln(normalized median fluorescence intensity)); higher = stronger DNA binding
In short: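 GST-tagged P. falciparum DNA-binding domains produced in E. coli were incubated for 1 h on an Agilent 4 × 180k array of primer-extended double-stranded 36-bp intergenic genomic probes with negative controls. Binding intensity is the highest Masliner-normalised natural-log median intensity across replicate spots of either probe orientation, with bound protein detected by Alexa488 anti-GST antibody at 488 nm.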

Row | Sequence | gcPBM binding intensity (ln)
1 | TTTGTAATAAATAAGAGTACAAGTATGGTTCCACTA [XGTACX_site2579] | 8.47 ± 0.35
2 | TGTATACATTCTGAATGTACGGAACACCTCATAACT [XGTACX_site7240] | 8.64 ± 0.38
3 | TGGAACCTTTAAAATACACACCCAAATCCTTTGAAA [CACACA_site7671] | 8.38 ± 0.52
4 | ATTATTTGAAACTATTGTACATTTAAAAACATTTTT [XGTACX_site4896] | 8.47 ± 0.35
5 | AAAAAAAAAAAAAACACACACATATAAATATAAATA [CACACA_site6972] | 8.38 ± 0.53
6 | ATTGGACTATAAATAGGTACACATATATATATATAT [XGTACX_site7562] | 10.4 ± 0.33
7 | TCATATATTCAAAAATTTAAAGTTAATAAAACTTGA [CACACA_negctrl_site1546] | 7.96 ± 0.42
8 | TAAATACTTGTATATAGTACAAGTTGTTTTTTTTAA [XGTACX_site5643] | 7.96 ± 0.38
9 | CATATATATTTTATTTGTACGTATAAAAAAACAAAA [XGTACX_site4253] | 8.8 ± 0.25
10 | ATATGAAAAAGAACTTGTACTAAAGTGGCATATTAT [XGTACX_site8520] | 8.9 ± 0.39
11 | TTAACAAATAAACACACACACACACCCAAAAAAAAA [CACACA_site8068] | 8.63 ± 0.45
12 | ATAAAAAAAAAAACAGTAAAATTATAATTATAATTA [TGCATGCA_negctrl_site356] | 8.47 ± 0.37
13 | TATATCCCTTAGAATACACACCCATATGAGTGTGAA [CACACA_site8965] | 8.21 ± 0.45
14 | TAATGATAAATACATACACACAAAAAATGATATATA [CACACA_site7258] | 8.6 ± 0.32
15 | AATGTAAAATCTTCATATACATTTAAGTCTGTATTT [TGCATGCA_negctrl_site183] | 8.04 ± 0.16
16 | ACAAAAATTAAATAAAGTACATTTTTAAAATACGTA [XGTACX_site3880] | 8.51 ± 0.36
17 | AAAAGCACAAAAAATACACACACAAAAAATAAAAAA [CACACA_site8545] | 8.5 ± 0.57
18 | TTATAAAAATTTAGTTGTACATGTCAAATTATCAAT [XGTACX_site7229] | 8.51 ± 0.44
19 | TAAGACAATAAATGCTGTACAATTGAATATCTTGGA [XGTACX_site636] | 8.62 ± 0.33
20 | TATTTTATTATTATTATTTCTTTATAGTGTATTCTA [CACACA_negctrl_site517] | 8.43 ± 0.62
21 | GGATAGGCATAACATAGTACGTACAAATATATATAT [XGTACX_site454] | 9.51 ± 0.085
22 | TATTTTATTATTATTATTAGTATGATTTCTTTATAG [CACACA_negctrl_site550] | 8.27 ± 0.47

Row | Sequence | gcPBM binding intensity (ln)
23 | TTTTCGTAACTGATTCAACACACAAAAGGGGGAAAA [CACACA_site8517] | 9.06 ± 0.2
24 | AATATATAGCTAAAAACACACAAATATATACACATA [CACACA_site9203] | 8.63 ± 0.45
25 | TTTTTTGTACCAAAAAAAAAAAAAAGAAAAAAAAAC [CACACA_negctrl_site1416] | 8.35 ± 0.39
26 | TATAAAATAAATTGTGCACACATATTTATAAATATG [CACACA_site2330] | 8.8 ± 0.18
27 | TATATGGAAAATTAAAGTACTAAAGAATAAATAGAA [XGTACX_site8796] | 8.85 ± 0.45
28 | TATAGATACATATACACACACACACCGACATATATA [CACACA_site9138] | 8.69 ± 0.43
29 | AATAATAGAAGCACCCACCCACCACCACCCACACAT [CACACA_negctrl_site1033] | 9.71 ± 0.41
30 | GAGAAACTTGTTTAAACATGCACAAAAAAAAAAAAA [TGCATGCA_site340] | 8.82 ± 0.47
31 | ACGATGAATATGTAAAGTACGCAAATGTAACAATAT [XGTACX_site728] | 9.03 ± 0.38
32 | AAATAAAAAAAGGGAACATGCAATATGTACAAATAT [TGCATGCA_site869] | 9.34 ± 0.52
33 | TCATAGGTTCAAAAGGGTACATTAATACATACATAT [XGTACX_site2236] | 8.57 ± 0.47
34 | GTAGTTACATATAGGGTGCTCCAATAGTTGACCTCG | 8.44 ± 0.29
35 | TCTTTTTTCTTTTTTTCACACATTATTTTTTAAATA [CACACA_site5197] | 8.75 ± 0.41
36 | AGCATTTTTCATTTTGCACACATGTTTTATGGGTAT [CACACA_site5839] | 8.9 ± 0.36
37 | CATATATATTGATATGCACACCTATGTATTGATGTA [CACACA_site8269] | 8.54 ± 0.33
38 | AGCTGAAAAAAAAGCTTGCACACGTATTTGCTTTAT [CACACA_site1512] | 8.55 ± 0.59
39 | GTTTTTTATATAAGGTGGTCAACATTGTAATGTTAA [XGTACX_site3204] | 8.68 ± 0.28
40 | AATATGTAGTAATCAAGTACTAATGTCTTAATTCGG [XGTACX_site308] | 8.56 ± 0.32
41 | TTTTTTTGTTATATCCTGCACTTCTTAACTATATTA [GTGCAC_site9807] | 9.05 ± 0.39
42 | AATAATAAGAATAACGCATGCACATATAATATAGAA [TGCATGCA_site3] | 9.54 ± 0.2
43 | CATATTATATTCTGCTTACACACATATATATATATA [CACACA_site3059] | 10.1 ± 0.42
44 | AAATTACACATCCATACACACATATTTTTTTTAATT [CACACA_site5242] | 8.65 ± 0.47

Row | Sequence | gcPBM binding intensity (ln)
45 | ATATAAATTGGCAATAGTACATAAAGGCATAGAAAG [XGTACX_site2674] | 9.21 ± 0.41
46 | GTATATATGTATATGTGTACACATATTCTTAACTCA [XGTACX_site309] | 8.88 ± 0.33
47 | TTAATTTATTATCTTTGTACACAATTAAAAAAAAAA [XGTACX_site3469] | 8.28 ± 0.38
48 | TTTTATTATAATAATTGTACAAAAATTATTTAATAT [XGTACX_site6054] | 8.19 ± 0.36
49 | ATAAATATACATTATACCGACCATGTGGATATTATA [XGTACX_negctrl_site241] | 8.43 ± 0.49
50 | AAAAAAAAAAAAAAAAGTACAAGCATTGCGTTTTAA [XGTACX_site6075] | 8.83 ± 0.35
51 | AAAAAAAAAAAAAAAACACACATACACGCACGCACA [CACACA_site7569] | 8.87 ± 0.15
52 | GTATATATATACCATTGTACTTTCGTAAAAATATTT [XGTACX_site4846] | 8.83 ± 0.48
53 | AGAAAAAAAAAAAAAAAAATATATATATATATATAT [TGCATGCA_negctrl_site411] | 10.1 ± 0.36
54 | ATATATCAATATGGAATATATATATATATATATATA [TGCATGCA_negctrl_site502] | 9.97 ± 0.47
55 | TTTCTATTTATTAATACATGCAAAATAAAGTAAAGT [TGCATGCA_site209] | 9.14 ± 0.13
56 | TTTTGGTTTTGTTCTACACACATAAAAAAAAAAAAG [CACACA_site2276] | 8.38 ± 0.4
57 | ATATATATAAATAAATGTACATAAATAATATATTAT [XGTACX_site5419] | 8.86 ± 0.41
58 | TATATATATATATATATATTTATGTATTTATTTAAT [TGCATGCA_negctrl_site179] | 10.1 ± 0.34
59 | TTATTTTTATATTTTAATTTTAAAAAAATTTTAATT [CACACA_negctrl_site777] | 8.04 ± 0.46
60 | ATTATACATATTATATGTACATATATAAATAAATAA [XGTACX_site7076] | 8.58 ± 0.31
61 | ATTTTTTATGTTAATGCATGCTCATGTGTATTTCAT [TGCATGCA_site751] | 9.46 ± 0.67
62 | AAAGTAATAATGATTTGTACATATATATATATATAT [XGTACX_site8821] | 10.1 ± 0.35
63 | TAATTAGATTATTTTTGTACATATTATTATAGGTTA [XGTACX_site2077] | 8.34 ± 0.38
64 | AGATATTATAAAATATGTACATATATATATATATAT [XGTACX_site2088] | 10.1 ± 0.33
65 | AAATATAACATCATCACACACATATACTTTATATGC [CACACA_site1126] | 8.56 ± 0.3
66 | AGCTTCATATTATGGAGTACTATTAAAAATAAATAA [XGTACX_site2649] | 8.46 ± 0.35

Row | Sequence | gcPBM binding intensity (ln)
67 | TTATCTTTTTTCGTTTGTACGTAACCATATTACTAT [XGTACX_site8853] | 9.02 ± 0.32
68 | AAAAATAATTATTCGTGTACAAAAAAAAAAATATAA [XGTACX_site439] | 8.46 ± 0.32
69 | ATGCAAATGTGCATCACACACACTAATGGGTATGTA [CACACA_site2893] | 8.39 ± 0.38
70 | GGAATATATATACATACACACATATATATATATATA [CACACA_site1666] | 10.1 ± 0.33
71 | AACAAATTTATCCAAAGTACAAAATATCATTTCTTA [XGTACX_site4543] | 8.07 ± 0.42
72 | ATTATAATTATATATGCATGTAGCATTTTCTATTTT [TGCATGCA_site66] | 8.74 ± 0.46
73 | AACAACATGTAGACGCGTACCAACATCAGATCCTAT [XGTACX_site4071] | 8.79 ± 0.52
74 | TTCTTTATTTATCATTATAAGAAGAGTTGATTTGTT [XGTACX_negctrl_site555] | 8.38 ± 0.43
75 | TTATAATATAGCAATTATTAAATAGGATCAAATGAA [CACACA_negctrl_site632] | 8.46 ± 0.46
76 | GGAAAATCTAATCATTTAATATTTATTTATCTAATT [GTGCAC_negctrl_site553] | 8 ± 0.4
77 | ATTTTATATAATACATGTACAAAAGTTTAAATTTAT [XGTACX_site6196] | 8.79 ± 0.22
78 | TATAAATACTAAAAAAGTACAAAATTTCATAAAAAA [XGTACX_site2709] | 8.57 ± 0.31
79 | TTTTTTTTTTTATTTGCATGCGGTGTTCATAATATT [TGCATGCA_site199] | 9.58 ± 0.3
80 | CGTTCATATTATTATAGTACATATTATTATAGTTTT [XGTACX_site1550] | 8.61 ± 0.4
81 | TATTTGTAAATTATTTGGGTGTGTAGGGGATATTCT [XGTACX_negctrl_site204] | 9.26 ± 0.66
82 | AGAAGAAAAGTAAAAAGTACATTATTCATGGCCTAT [XGTACX_site5601] | 8.37 ± 0.33
83 | TTGGTGGATAAATTTACACACAATAACTTTCGTTCA [CACACA_site6358] | 8.46 ± 0.3
84 | ATATAAGAAATAAAGAAAAATGTGTTTTTTTTTTTT [XGTACX_negctrl_site396] | 8.13 ± 0.43
85 | AAACAAATATTTATCACAATGTCATTTTGTTAACAT [GTGCAC_negctrl_site171] | 8.66 ± 0.42
86 | TTTTTCCTAACATATTATATACTTGAATATTTATTA [CACACA_negctrl_site156] | 8.44 ± 0.29
87 | TTTATCTTATTTTTATGTACTTATTTTATAAAAAAA [XGTACX_site7730] | 8.83 ± 0.21
